The campaign covered roughly 360,000 compounds. About 25,000 (6.9%) were called active. The shares of active, inactive and inconclusive entries below differ from those in the screen. Calls come from the whole dose curve; as a rule, active = well fitted inhibition curve with a large enough effect; inconclusive = small, poorly fitted or top-dose-only effect; inactive = flat fitted curve, though single readings scatter. Potencies beside an inconclusive call are fits to weak or partial responses and may not hold up.
These molecules were tested against Luciferin 4-monooxygenase (Photinus pyralis) (UniProt P08659) (assay: qHTS profiling assay for firefly luciferase inhibitor/activator using purifed enzyme and Km concentrations of substrates (counterscreen for miR-21 project)). Settings: purified FLuc, luminescence inhibition; series mostly up to 57.5 µM; activity change, negative = inhibition: at the top concentration.
Sequence of UniProt P08659 (P08659 whole entry, looked up): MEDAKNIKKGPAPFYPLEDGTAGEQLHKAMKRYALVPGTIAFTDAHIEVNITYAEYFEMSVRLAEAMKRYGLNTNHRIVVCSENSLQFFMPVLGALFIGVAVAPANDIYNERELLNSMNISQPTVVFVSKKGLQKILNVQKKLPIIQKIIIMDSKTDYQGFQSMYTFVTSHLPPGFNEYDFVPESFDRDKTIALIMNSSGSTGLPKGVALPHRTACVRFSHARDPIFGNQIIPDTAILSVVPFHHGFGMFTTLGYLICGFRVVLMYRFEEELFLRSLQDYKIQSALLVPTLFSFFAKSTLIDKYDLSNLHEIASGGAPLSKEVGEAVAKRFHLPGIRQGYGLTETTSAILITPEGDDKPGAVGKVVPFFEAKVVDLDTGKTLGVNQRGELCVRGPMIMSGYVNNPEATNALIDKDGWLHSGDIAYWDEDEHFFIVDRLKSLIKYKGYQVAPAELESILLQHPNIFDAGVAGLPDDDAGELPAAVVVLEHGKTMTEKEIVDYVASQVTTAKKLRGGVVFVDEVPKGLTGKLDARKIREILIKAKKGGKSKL
Procedure, shortened: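 Purified P. pyralis luciferase (10nM final) with 10uM D-luciferin and 10uM ATP (Km levels) in 50mM Tris acetate pH 7.5, 10mM Mg acetate, 0.01% Tween-20, 0.05% BSA; qHTS 6-point titration, ~60 µM downward; luminescence read.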
Note: nearly all actives have a fitted effect of over 55% in size.
Potency is the fitted concentration of half-maximal effect; tags give direction and shape of the fitted curve.
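Throughout, for activity change, negative = inhibition: plate controls were vehicle for no effect and reference inhibitor for full effect.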

Row | Structure (SMILES) | Potency | activity change, negative = inhibition
1 | O=C1C2C3C=CC(C3)C2C(=O)N1c1ccc2c(c1)CCC2 (centres undefined) | inconclusive: 16.9 µM [inhibitor, partial curve] | 
2 | COCCNC(=S)N/N=C/c1ccc([N+](=O)[O-])cc1 |  | inactive: -2.2%
3 | CN(C)C=NC(=O)c1cc(C(=O)c2ccc(Cl)cc2)c[nH]1 | inconclusive: 21.3 µM [inhibitor, single point] | 
4 | Cc1ccc(-c2nc(Nc3cccc(O)c3)c3ccccc3n2)cc1 | active: 21.3 µM | 
5 | COc1ccccc1N1CCN(Cc2cc(=O)c(OCC(=O)NC3CCCC3)co2)CC1 |  | inactive: 1.95%
6 | COc1ccc(N2C(=O)[C@@H]3[C@H](C2=O)[C@H]2c4ccccc4C=CN2[C@@H]3C(=O)Nc2ccccc2)cc1 | inconclusive: 37.9 µM [inhibitor, partial curve, poor fit] | 
7 | Oc1c(C(c2ccc(Br)cc2)N2CCOCC2)sc2nc(-c3ccco3)nn12 (centres undefined) | inconclusive: 19 µM [inhibitor, partial curve, poor fit] | 
8 | COc1ccc(CN(C(=O)CSc2nnc(-c3c[nH]c4ccccc34)o2)c2ccc(F)cc2)cc1OC | inconclusive: 16.9 µM [inhibitor, partial curve] | 
9 | COc1ccccc1CCc1nnc(CCC(=O)NCC2CCCO2)o1 (centres undefined) |  | inactive: -2.11%
10 | CCN(CC)c1ccc(C(=S)NCc2ccccc2)cc1 | inconclusive: 30.1 µM [inhibitor, partial curve, poor fit] | 
11 | O=C(COC(=O)c1cccs1)NC1CCCC1 | inconclusive: 23.9 µM [inhibitor, single point] | 
12 | CCC(OCC(O)CN1CCN(CCN2C(=O)c3cccc4cccc(c34)C2=O)CC1)c1ccccc1 (centres undefined) |  | inactive: 0.893%
13 | CCN(CCCNC(=O)CSc1cc(=O)n(C)c2cc(Cl)ccc12)c1cccc(C)c1 |  | inactive: -14.8%
14 | Cn1nccc1C(=O)N/N=C/c1ccccc1[N+](=O)[O-] | active: 13.5 µM | 
15 | O=C1Oc2ccccc2C(=O)/C1=C/N1CCN(c2ccccc2F)CC1 | inconclusive: 26.9 µM [inhibitor, partial curve, poor fit] | 
16 | O=C(CCCSc1nc2ccccc2s1)NCc1ccc2c(c1)OCO2 | inconclusive: 21.3 µM [inhibitor, partial curve, poor fit] | 
17 | COc1cccc(-c2nc(CS(=O)(=O)CC(=O)Nc3cc(F)ccc3F)c(C)o2)c1 | inactive | 
18 | COc1ccc(CCN2C(=O)N[C@@H](CCC(=O)O)C2=O)cc1 |  | inactive: -0.967%
19 | Cc1cc(C)nc(Nc2n[nH]c(C)n2)n1 |  | inactive: -2.42%
20 | Cc1ccc(N=c2c([N+](=O)[O-])nn(-c3ccc4c(c3)OCCO4)n2O)c(Cl)c1 | inconclusive: 37.9 µM [inhibitor, single point] | 
21 | Fc1ccc(C(Nc2ccc(Cl)c(C(F)(F)F)c2)c2nnc(-c3ccccc3)o2)cc1 (centres undefined) | inconclusive: 16.9 µM [inhibitor, partial curve] | 
22 | O=C(N/N=C/c1ccc(OCC(=O)N2CCOCC2)cc1)c1ccccc1Cl | inconclusive: 26.9 µM [inhibitor, single point] | 
23 | Cc1cc(C(=O)NC(=S)Nc2cccc(C(=O)O)c2C)ccc1[N+](=O)[O-] | inconclusive: 30.1 µM [inhibitor, partial curve, poor fit] | 

Row | Structure (SMILES) | Potency | activity change, negative = inhibition
24 | CC1CCCCC1NC(=O)c1ccc2c(c1)OCCO2 (centres undefined) | inconclusive: 23.9 µM [inhibitor, single point] | 
25 | Cc1ccc(OCCCn2c(=O)oc3ccccc32)cc1 | inconclusive: 26.9 µM [inhibitor, single point] | 
26 | CCn1cc(/C=N\NC(=O)c2csc3ccccc23)c(C)n1 | inconclusive: 26.9 µM [inhibitor, single point] | 
27 | Cn1c(=O)n(CCCOc2ccc(Cl)cc2)c2ccccc21 | inconclusive: 21.3 µM [inhibitor, single point] | 
28 | CC(=O)c1cnc2c(-c3ccc(Cl)cc3)cnn2c1C | inconclusive: 6.01 µM [inhibitor, partial curve, poor fit] | 
29 | COc1cccc(NC(=O)C(=O)NCC(c2ccc3c(c2)OCO3)N2CCOCC2)c1 (centres undefined) | inconclusive: 19 µM [inhibitor, partial curve] | 
30 | COc1ccc(N2C(=O)C3CCCN3C2c2ccc(C)cc2)cc1Cl (centres undefined) |  | inactive: -1.78%
31 | Cc1nc(-c2ccc(Cl)cc2)sc1C(=O)O | active: 15.1 µM | 
32 | CCc1nnc(NS(=O)(=O)c2ccc(NC(=S)NC(=O)/C=C/c3ccc(C(C)C)cc3)cc2)s1 | inconclusive: 26.9 µM [inhibitor, single point] | 
33 | CC(C)(C)C(=O)CSc1ncnc2sc3c(c12)CCC3 | inconclusive: 30.1 µM [inhibitor, partial curve, poor fit] | 
34 | CC(=O)c1ccc2c(c1)C1C=CCC1C(c1ccncc1)N2 (centres undefined) | active: 16.9 µM | 
35 | CCNC(=O)CSc1nc(-c2ccccc2)cs1 | inconclusive: 19 µM [inhibitor, partial curve] | 
36 | CCc1ccccc1N(C)S(=O)(=O)c1ccc2[nH]cc(C(=O)NCCOC)c(=O)c2c1 | inconclusive: 37.9 µM [inhibitor, partial curve, poor fit] | 
37 | COc1cccc(-c2cc(C(=O)O)no2)c1 | inconclusive: 37.9 µM [inhibitor, partial curve, poor fit] | 
38 | Cc1ccc(C(=O)CC(SCC(=O)O)c2ccc([N+](=O)[O-])cc2)cc1 (centres undefined) | inconclusive: 4.78 µM [inhibitor, partial curve, poor fit] | 
39 | Cc1cc(=O)oc(C)c1C(=O)OCC(=O)c1ccc(Br)cc1 | active: 9.53 µM | 
40 | Cc1cn2c(=O)cc(COC(=O)c3cccc(NC(=O)COc4ccc(Cl)cc4)c3)nc2s1 | inconclusive: 12 µM [inhibitor, partial curve] | 
41 | Cc1c(C(=O)NCc2nnc(-c3ccccc3)o2)oc2c(F)cccc12 | inconclusive: 37.9 µM [inhibitor, partial curve, poor fit] | 
42 | C/C(=N\NC(=O)Cn1c(-c2ccccn2)nc2ccccc21)c1ccccc1 | inconclusive: 37.9 µM [inhibitor, partial curve, poor fit] | 
43 | C=CCn1c(-c2cnn(-c3ccccc3)c2N)n[nH]c1=S | inconclusive: 37.9 µM [inhibitor, single point] | 
44 | Cc1cccc(Oc2ccc(NC(=O)c3ccccc3C(=O)O)cc2)c1 | active: 21.3 µM | 
45 | O=C(Cn1cc(C(=O)c2ccco2)c2ccccc21)NCc1ccco1 | inconclusive: 37.9 µM [inhibitor, partial curve, poor fit] | 
46 | COCCCNC(=O)/C=C/c1c(Cl)cccc1Cl | inconclusive: 37.9 µM [inhibitor, partial curve, poor fit] | 

Row | Structure (SMILES) | Potency | activity change, negative = inhibition
47 | O=S(=O)(Nc1ccc(-c2ccc(N3CCCCCC3)nn2)cc1)c1ccc(C(F)(F)F)cc1 | inconclusive: 12 µM [inhibitor, partial curve] | 
48 | COc1ccc(Nc2ncnc3c2cnn3C)c(OC)c1 |  | inactive: -2.15%
49 | Clc1cccc(CSc2nc3ccncc3[nH]2)c1 | inconclusive: 26.9 µM [inhibitor, single point] | 
50 | COc1ccccc1OCc1cc(C(=O)N2CC3C[C@@H]4CC2C[C@H](C3)C4)no1 | active: 16.9 µM | 
51 | Cc1ccc(-n2nc3c(=O)n(CCCC(=O)NCc4ccc(F)cc4)nc(C)c3c2C)cc1 | inconclusive: 21.3 µM [inhibitor, partial curve, poor fit] | 
52 | CCOc1ccccc1C(=O)NCC(=O)N1CCN(Cc2ccc3c(c2)OCO3)CC1 |  | inactive: 5.56%
53 | O=C(CN1CCN(Cc2ccc(F)cc2)C1=O)NCc1ccccc1 |  | inactive: 0.21%
54 | CC(C)n1c(O)c(N=Nc2ccccn2)c2ccccc21 | inconclusive: 37.9 µM [inhibitor, partial curve, poor fit] | 
55 | Cc1sc2nc(SCC(=O)Nc3ccc(S(=O)(=O)NCCCC(=O)O)cc3)[nH]c(=O)c2c1C | active: 16.9 µM | 
56 | Nc1ccccc1NC(=O)NC(=O)c1ccccc1 | active: 10.7 µM | 
57 | CCCn1nnc(NC(=O)c2ccccc2Cl)n1 | inconclusive: 16.9 µM [inhibitor, partial curve, poor fit] | 
58 | Cc1cccc(C(=O)NNC(=O)c2ccc(Cl)cc2)c1O | active: 10.7 µM | 
59 | Cc1sc(NC(=O)CSc2nc(N)n(CC(=O)c3ccccc3)n2)c(C#N)c1C | inconclusive: 33.8 µM [inhibitor, single point] | 
60 | COc1ccccc1NC(=O)Nc1ccc(-n2ccc(C(F)(F)F)n2)cc1 | active: 10.7 µM | 
61 | CCOC(=O)Cc1csc(NC(=O)c2cc(OC)cc(OC)c2)n1 | inconclusive: 37.9 µM [inhibitor, partial curve, poor fit] | 
62 | Cc1nn(-c2ccccc2)c(Cl)c1/C=N/NC(=O)CCNc1n[nH]c(=O)[nH]c1=O | inconclusive: 33.8 µM [inhibitor, single point] | 
63 | COc1ccccc1-c1nnc(N(C)C(=O)C2CCCO2)s1 (centres undefined) | inconclusive: 37.9 µM [inhibitor, single point] | 
64 | COC(=O)c1c(C)[nH]c(O)c1C=Nc1ccc(C#N)cc1 |  | inactive: -4.67%
65 | O=c1cc2nc(-c3ccccc3)nc(SCc3cccc(Br)c3)n2[nH]1 | inconclusive: 16.9 µM [inhibitor, partial curve] | 
66 | COc1cccc(N2CCN(C(=O)c3cnc4c(C)cccn4c3=O)CC2)c1 |  | inactive: -0.379%
67 | COc1ccc(-n2nc(C(=O)NCC(=O)N3CCN(Cc4ccccc4)CC3)c3ccccc3c2=O)cc1OC | inconclusive: 21.3 µM [inhibitor, partial curve, poor fit] | 
68 | CC1CCc2c(sc(NC(=O)C3CCCO3)c2C#N)C1 (centres undefined) | active: 10.7 µM | 
69 | CCOC(=O)C1(Nc2nccs2)Sc2ccccc2NC1=O (centres undefined) | inconclusive: 15.1 µM [inhibitor, partial curve, poor fit] | 

Source: PubChem BioAssay AID588342 (National Center for Advancing Translational Sciences (NCATS), 2011)
